Source: PubChem BioAssay AID1347428 (National Center for Advancing Translational Sciences (NCATS), 2020)
About 290 (0.32%) of roughly 91,000 compounds were called active. Inconclusive results, whose numbers are uncertain, are shown with a selection of clear calls. The call rests on the fitted dose curve; in most records, active means well fitted inhibition curve with a large enough effect; inconclusive means small, poorly fitted or top-dose-only effect; inactive means no such curve, though single readings can be large or run the other way. Potencies beside an inconclusive call are fits to weak or partial responses and may not hold up.
Further: nearly all actives have a fitted effect of over 25% in size.
Potency means the concentration at half of the fitted maximal effect; tags describe the fitted curve by direction and shape.

These molecules were tested against Single-stranded DNA cytosine deaminase (Homo sapiens) (UniProt Q9GZX7) (assay: Primary qHTS assay for inhibitors of Activation Induced Cytidine Deaminase (AID): AID signal). Conditions: AID deamination FRET fluorescence, UDG-coupled, 4 h; series mostly up to 115 µM.
UniProt Q9GZX7, sequence (Q9GZX7 whole entry, looked up): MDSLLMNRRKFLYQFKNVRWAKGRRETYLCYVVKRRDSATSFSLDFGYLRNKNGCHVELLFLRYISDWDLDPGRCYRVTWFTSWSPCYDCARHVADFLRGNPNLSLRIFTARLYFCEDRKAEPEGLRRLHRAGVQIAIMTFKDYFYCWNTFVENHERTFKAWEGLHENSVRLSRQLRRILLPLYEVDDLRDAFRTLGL
`COc1ccc(-c2nnn3c2nc(N2CCCC(C)C2)c2ccccc23)cc1` (configuration not stated) was tested, and the Potency was inconclusive: 100 µM [inhibitor, single point].
With `O=C(/C(Br)=C/Nc1cc(Cl)cc(Cl)c1)C(F)(F)F` the Potency was “inactive”.
`CC(=O)c1ccc(N2CCN(C(=O)NCc3noc4ccc(C)cc34)CC2)cc1` was tested, and the Potency was inconclusive: 89.1 µM [inhibitor, single point].
With `CCc1ccc(CNC(=O)c2ccc(CSc3nc4ccncc4n3Cc3ccccc3)cc2)cc1` the Potency was inconclusive: 11.2 µM [inhibitor, partial curve, poor fit].
In the case of `Cc1ccc(NC(=O)c2cc(S(=O)(=O)N3CCOCC3)c(Cl)cc2Cl)cc1`, the Potency is reported as “inactive”.
With `COCCNC(=O)CCC(=O)NNc1nc2ccccc2c2nc(-c3ccccc3)nn12` the Potency was inconclusive: 89.1 µM [inhibitor, single point].
For `Cc1ccc(C2C=C(c3ccc(Cl)cc3)Nc3nc(NS(=O)(=O)c4ccccc4)nn32)cc1` (configuration not stated), the Potency was inconclusive: 20 µM [inhibitor, full curve, poor fit].
With `COc1cccc(NC(=O)CSC2=Nc3ccccc3N=C(c3ccc(F)cc3)C2)c1` the Potency was inconclusive: 70.8 µM [inhibitor, single point].
`CCc1ccc(-n2c(SCc3ccccc3F)nc3[nH]ncc3c2=O)cc1` was tested, and the Potency was inconclusive: 50.1 µM [inhibitor, partial curve, poor fit].
With `COc1cccc(NC(=O)CSC2=Nc3ccccc3C3=NC(CC(=O)NCCc4ccccc4)C(=O)N23)c1` (configuration not stated) the Potency was inconclusive: 89.1 µM [inhibitor, single point].
For `COc1cc(-c2nc3nc[nH]n3c2Nc2ccc(C(C)C)cc2)ccc1O`, the Potency was inconclusive: 3.16 µM [inhibitor, full curve, poor fit].
`Cc1cccc(-n2ncc3c(Nc4ccc(Oc5ccc(Cl)cc5)cc4)ncnc32)c1` was tested, and the Potency was inconclusive: 8.91 µM [inhibitor, full curve, poor fit].
With `Cc1ccc(C)n1-c1c(C(=O)NCCC(C)C)sc2ncccc12` the Potency was inconclusive: 63.1 µM [inhibitor, partial curve, poor fit].
`O=c1c2nccnc2nc(SCc2cccc(F)c2)n1Cc1ccc2c(c1)OCO2` was tested, and the Potency was “inactive”.
For `Cc1cccc(-c2noc(CN(C(=O)COc3ccc(Br)cc3C)C(C)C)n2)c1`, the Potency was inconclusive: 39.8 µM [inhibitor, partial curve, poor fit].
For `COc1cc(C(=O)Nc2nc3nc(-c4ccccc4)cc(=O)n3[nH]2)cc(OC)c1OC`, the Potency was inconclusive: 15.8 µM [inhibitor, partial curve, poor fit].
For `CCN(Cc1ccccc1)C(=O)c1nc(-c2cccc(F)c2)n2c1CCCCC2`, the Potency was inconclusive: 28.2 µM [inhibitor, partial curve, poor fit].
For `Cc1cc(C)c(CSc2nnc(C)n3c2cc2occc23)c(C)c1`, the Potency was inconclusive: 50.1 µM [inhibitor, partial curve, poor fit].
With `Cc1ccn2c(Nc3ccccc3C)c(-c3ccccn3)nc2c1` the Potency was inconclusive: 39.8 µM [inhibitor, partial curve, poor fit].
In the case of `CCOc1cc(/C=C/C(=O)c2ccc(C)cc2)cc(Cl)c1O`, the Potency is reported as “inactive”.
In the case of `Cc1cc(C)cc(-n2c(SCC(=O)N3CCCCC3)nc3c([nH]c4ccccc43)c2=O)c1`, the Potency is reported as inconclusive: 10 µM [inhibitor, partial curve, poor fit].
`Cc1cc(C)cc(NC(=O)CCC(=O)N2Cc3ccccc3Oc3ncccc32)c1` was tested, and the Potency was inconclusive: 11.2 µM [inhibitor, partial curve, poor fit].
For `C=CCc1ccccc1OCCSc1nc(-c2ccc(C(C)(C)C)cc2)nc2cc(=O)[nH]n12`, the Potency was inconclusive: 44.7 µM [inhibitor, partial curve, poor fit].
For `COc1ccccc1/C=C/c1nc(C#N)c(N2CCCCC2)o1`, the Potency was inconclusive: 100 µM [inhibitor, partial curve, poor fit].
With `C[C@H](NS(=O)(=O)/C=C/c1ccccc1)C(=O)OCC(=O)c1c[nH]c2ccccc12` the Potency was “inactive”.
For `CC(C)c1ccc(S(=O)(=O)c2nnn3c2nc(NCCc2ccccc2)c2sccc23)cc1`, the Potency was inconclusive: 15.8 µM [inhibitor, full curve].
In the case of `CCOc1ccc(NC(=O)C(=O)NCCc2csc(-c3ccc(F)cc3)n2)cc1`, the Potency is reported as inconclusive: 63.1 µM [inhibitor, partial curve, poor fit].
With `O=C(COc1ccccc1)NCc1ccc2c(c1)CCN2C(=O)c1ccc(F)cc1` the Potency was active: 22.4 µM.
With `Cc1cccc(CNC(=O)c2oc3c(c2C)-c2nn(Cc4ccccc4Cl)cc2CC3)c1` the Potency was inconclusive: 50.1 µM [inhibitor, partial curve, poor fit].
In the case of `COc1cc(NC(=O)CCn2c(-c3ccccc3)cc(C(C)=O)c2C)cc(OC)c1`, the Potency is reported as inconclusive: 79.4 µM [inhibitor, partial curve, poor fit].
In the case of `CCCN(C(=O)c1cc2c(s1)-c1ccccc1OC2)c1ccccc1F`, the Potency is reported as inconclusive: 17.8 µM [inhibitor, full curve].
In the case of `CCOC(=O)c1cccc(NC(=O)c2oc3c(c2C)-c2[nH]ncc2CC3)c1`, the Potency is reported as inconclusive: 31.6 µM [inhibitor, full curve, poor fit].
In the case of `COc1ccc(-c2cc3c(=O)n(CC(=O)NCc4cccc(Br)c4)ncn3n2)cc1`, the Potency is reported as “inactive”.
In the case of `CCC1CCCCN1C(=O)c1ccc2c(c1)N(Cc1cccc(Cl)c1)C(=O)c1ccccc1S2(=O)=O` (configuration not stated), the Potency is reported as inconclusive: 44.7 µM [inhibitor, partial curve, poor fit].
`COc1ccc(N(Cc2cccs2)C(=O)COc2cccc(Cl)c2)cc1` was tested, and the Potency was inconclusive: 14.1 µM [inhibitor, partial curve, poor fit].
With `Cc1ccc(Cl)cc1NC(=O)c1oc2c(c1C)-c1[nH]ncc1CC2` the Potency was inconclusive: 35.5 µM [inhibitor, full curve, poor fit].
For `CC1=C(C(=O)OC2CCCCCC2)C(c2c(F)cccc2Cl)CC(=O)N1` (configuration not stated), the Potency was inconclusive: 25.1 µM [inhibitor, full curve, poor fit].
